A collection of fitness landscapes (doi:10.1126/science.1257360)
Some of the results follow.

B1: PhoQ; a variant is named by its letters at X, in order, P23837 (parent)
chain: MKKLLRLFFPLSLRVRFLLATAAVVLVLSLAYGMVALIGYSVSFDKTTFRLLRGESNLFYTLAKWENNKLHVELPENIDKQSPTMTLIYDENGQLLWAQRDVPWLMKMIQPDWLKSNGFHEIEADVNDTSLLLSGDHSIQQQLQEVREDDDDAEMTHSVAVNVYPATSRMPKLTIVVVDTIPVELKSSYMVWSWFIYVLSANLLLVIPLLWVAAWWSLRPIEALAKEVRELEEHNRELLNPATTRELTSLVRNLNRLLKSERERYDKYRTTLTDLTHSLKTPLXXLQXXLRSLRSEKMSVSDAEPVMLEQISRISQQIGYYLHRASMRGGTLLSRELHPVAPLLDNLTSALNKVYQRKGVNISLDISPEISFVGEQNDFVEVMGNVLDNACKYCLEFVEISARQTDEHLYIVVEDDGPGIPLSKREVIFDRGQRVDTLRPGQGVGLAVAREITEQYEGKIVAGESMLGGARMEVIFGRQHSAPKDE

Variants of: B1
Experiment: enrichment ratio after two sorts for PhoP signalling (ratio (wild type AVST 3.29)); higher = more functional
Conditions: with PhoP (E. coli)

| Variant | enrichment ratio |
| --- | --- |
| TMDQ | ≤ 0.25 |
| QKCP | ≤ 0.25 |
| PMQV | ≤ 0.25 |
| MAMS | ≤ 0.25 |
| PWKM | ≤ 0.25 |
| HPLN | ≤ 0.25 |
| NCKI | ≤ 0.25 |
| PWTY | ≤ 0.25 |
| TWQI | ≤ 0.25 |
| ICHF | ≤ 0.25 |
| LNDF | ≤ 0.25 |
| NQTI | ≤ 0.25 |
| PYNR | ≤ 0.25 |
| QGLQ | ≤ 0.25 |
| HKWW | ≤ 0.25 |
| VFEV | ≤ 0.25 |
| QGGY | 14.3 |
| AWHT | ≤ 0.25 |
| QMPS | ≤ 0.25 |
| YSGP | ≤ 0.25 |
| LTLG | ≤ 0.25 |
| KFCH | ≤ 0.25 |
| SMAI | 13.5 |
| AKMI | 12.8 |

| Variant | enrichment ratio |
| --- | --- |
| QTTE | ≤ 0.25 |
| YFKE | ≤ 0.25 |
| YNMV | 0.274 |
| ATVE | ≤ 0.25 |
| AMQM | ≤ 0.25 |
| KYVY | ≤ 0.25 |
| ETNV | ≤ 0.25 |
| TQSW | ≤ 0.25 |
| RYIM | ≤ 0.25 |
| KALG | ≤ 0.25 |
| DPLA | ≤ 0.25 |
| MSPW | ≤ 0.25 |
| IIII | ≤ 0.25 |
| KYGY | ≤ 0.25 |
| SRIV | ≤ 0.25 |
| IAVH | ≤ 0.25 |
| LWHY | ≤ 0.25 |
| AKEC | ≤ 0.25 |
| APSG | ≤ 0.25 |
| DMDA | ≤ 0.25 |
| RRWH | ≤ 0.25 |
| KYKA | ≤ 0.25 |
| KNRD | ≤ 0.25 |
| TNCK | ≤ 0.25 |

| Variant | enrichment ratio |
| --- | --- |
| YHAL | ≤ 0.25 |
| DGPS | ≤ 0.25 |
| IGNR | ≤ 0.25 |
| VWVM | ≤ 0.25 |
| VMRY | ≤ 0.25 |
| WNCA | ≤ 0.25 |
| RPGQ | ≤ 0.25 |
| TNFE | ≤ 0.25 |
| ECFR | ≤ 0.25 |
| GSNY | ≤ 0.25 |
| QFNA | ≤ 0.25 |
| QATQ | ≤ 0.25 |
| WFKG | ≤ 0.25 |
| GSWM | ≤ 0.25 |
| EHQA | ≤ 0.25 |
| SPST | ≤ 0.25 |
| STLS | 11.1 |
| PNPE | ≤ 0.25 |
| WWLR | ≤ 0.25 |
| RDHW | ≤ 0.25 |
| DMSR | ≤ 0.25 |
| FVNF | ≤ 0.25 |
| FPPG | ≤ 0.25 |
| ATTV | 6.52 |

| Variant | enrichment ratio |
| --- | --- |
| MKAL | 4.45 |
| YYDD | ≤ 0.25 |
| LYLC | ≤ 0.25 |
| TNLV | 5.2 |
| AFSP | ≤ 0.25 |
| HCLL | 3.34 |
| IIHI | ≤ 0.25 |
| GKEA | ≤ 0.25 |
| NHHN | ≤ 0.25 |
| STFC | ≤ 0.25 |
| RTCA | ≤ 0.25 |
| RQGP | ≤ 0.25 |
| YDGI | ≤ 0.25 |
| AWQC | ≤ 0.25 |
| YHWM | ≤ 0.25 |
| TTHV | 14.6 |
| VIPC | ≤ 0.25 |
| FIKG | ≤ 0.25 |
| LHVD | ≤ 0.25 |
| IWST | ≤ 0.25 |
| MMCA | ≤ 0.25 |
| FWTT | ≤ 0.25 |
| EIIH | ≤ 0.25 |
| GWYT | ≤ 0.25 |

| Variant | enrichment ratio |
| --- | --- |
| YFTC | ≤ 0.25 |
| GVAM | 15.2 |
| LLDR | ≤ 0.25 |
| NTFL | ≤ 0.25 |
| PMDE | ≤ 0.25 |
| TFVA | ≤ 0.25 |
| APSY | ≤ 0.25 |
| DDLA | ≤ 0.25 |
| LDWY | ≤ 0.25 |
| KIII | ≤ 0.25 |
| SILK | 4.02 |
| NALA | ≤ 0.25 |
| DVWR | ≤ 0.25 |
| PKGV | ≤ 0.25 |
| TPYD | ≤ 0.25 |
| QDHN | ≤ 0.25 |
| RSGR | ≤ 0.25 |
| RAEC | ≤ 0.25 |
| TIIN | ≤ 0.25 |
| HNFT | ≤ 0.25 |
| LPTL | ≤ 0.25 |
| IKIG | ≤ 0.25 |
| MSCM | 3.66 |
| NNVD | ≤ 0.25 |

| Variant | enrichment ratio |
| --- | --- |
| TSAP | ≤ 0.25 |
| FFDN | ≤ 0.25 |
| QNCS | ≤ 0.25 |
| NTWH | ≤ 0.25 |
| WSKG | ≤ 0.25 |
| QMKQ | ≤ 0.25 |
| PFSI | ≤ 0.25 |
| ANIG | 29.2 |
| AYDL | ≤ 0.25 |
| VSTV | 5.28 |
| NRSI | ≤ 0.25 |
| WRTR | ≤ 0.25 |
| QITT | ≤ 0.25 |
| VVPC | ≤ 0.25 |
| NAML | ≤ 0.25 |
| LIYV | ≤ 0.25 |
| WLLD | ≤ 0.25 |
| NQHH | ≤ 0.25 |
| KTMI | ≤ 0.25 |
| EWAP | ≤ 0.25 |
| SWLQ | ≤ 0.25 |
| SGPM | ≤ 0.25 |
| EGCT | ≤ 0.25 |
| IMLT | ≤ 0.25 |

| Variant | enrichment ratio |
| --- | --- |
| WMWC | ≤ 0.25 |
| HKIH | ≤ 0.25 |
| VFCG | ≤ 0.25 |
| FEVI | 7.2 |
| MTNM | ≤ 0.25 |
| QLMW | ≤ 0.25 |
| ATTC | 3.48 |
| KAYC | ≤ 0.25 |
| HSNR | ≤ 0.25 |
| NEVW | ≤ 0.25 |
| RCNP | ≤ 0.25 |
| GQDM | ≤ 0.25 |
| TVGV | 5.79 |
| KVGM | ≤ 0.25 |
| IYEA | ≤ 0.25 |
| KMAW | ≤ 0.25 |
| QTKG | ≤ 0.25 |
| NYLA | ≤ 0.25 |
| FPQH | ≤ 0.25 |
| EMWD | ≤ 0.25 |
| WYRY | ≤ 0.25 |
| GFYV | ≤ 0.25 |
| QNPI | ≤ 0.25 |
| TREQ | ≤ 0.25 |

| Variant | enrichment ratio |
| --- | --- |
| AKCP | ≤ 0.25 |
| FNRR | ≤ 0.25 |
| AMDV | ≤ 0.25 |
| PHWH | ≤ 0.25 |
| KNES | ≤ 0.25 |
| QTGA | ≤ 0.25 |
| TDPM | ≤ 0.25 |
| TSGH | 6 |
| INVL | ≤ 0.25 |
| LIQL | ≤ 0.25 |
| SCQK | 10.8 |
| TDLD | ≤ 0.25 |
| IMME | ≤ 0.25 |
| VTDV | ≤ 0.25 |
| YMRL | ≤ 0.25 |
| DDDN | ≤ 0.25 |
| SAYR | ≤ 0.25 |
| YTRS | 1.21 |
| SPHI | ≤ 0.25 |
| SEAK | 4.78 |
| LQNC | ≤ 0.25 |
| QDEK | ≤ 0.25 |
| KSID | ≤ 0.25 |
| FVDD | ≤ 0.25 |

| Variant | enrichment ratio |
| --- | --- |
| HGSW | ≤ 0.25 |
| HWGN | ≤ 0.25 |
| RCVN | 1.31 |
| KESI | ≤ 0.25 |
| LFIS | ≤ 0.25 |
| VDEM | ≤ 0.25 |
| WGSA | ≤ 0.25 |
| EMVM | ≤ 0.25 |
| APTW | ≤ 0.25 |
| WFGL | ≤ 0.25 |
| FTMW | ≤ 0.25 |
| VWDT | ≤ 0.25 |
| PAHG | ≤ 0.25 |
| TING | 13.9 |
| ACMK | 17.8 |
| YDYD | ≤ 0.25 |
| LEPS | ≤ 0.25 |
| LKTH | ≤ 0.25 |
| DKSW | ≤ 0.25 |
| TDDC | ≤ 0.25 |
| YKID | ≤ 0.25 |
| VVSE | ≤ 0.25 |
| GTHP | ≤ 0.25 |
| APWY | ≤ 0.25 |

| Variant | enrichment ratio |
| --- | --- |
| EWSY | ≤ 0.25 |
| HSYH | ≤ 0.25 |
| PNCE | ≤ 0.25 |
| DKAR | ≤ 0.25 |
| KSCD | ≤ 0.25 |
| ACCR | 2.08 |
| LVKT | ≤ 0.25 |
| FIHY | ≤ 0.25 |
| ATSM | 16.9 |
| VMNL | ≤ 0.25 |
| FWWK | ≤ 0.25 |
| HPDI | ≤ 0.25 |
| YHPF | ≤ 0.25 |
| MHCN | ≤ 0.25 |
| LYWC | 0.693 |
| YSHW | ≤ 0.25 |
| MHPD | ≤ 0.25 |
| RLWC | ≤ 0.25 |
| SFPA | ≤ 0.25 |
| SHKN | ≤ 0.25 |
| KDGW | ≤ 0.25 |
| SLCS | 9.87 |
| LFLQ | ≤ 0.25 |
| PYHL | ≤ 0.25 |

| Variant | enrichment ratio |
| --- | --- |
| VTEC | ≤ 0.25 |
| DLAH | ≤ 0.25 |
| GIFA | ≤ 0.25 |
| HNCP | ≤ 0.25 |
| ILMD | ≤ 0.25 |
| PMTK | ≤ 0.25 |
| KVHT | ≤ 0.25 |
| QVAK | ≤ 0.25 |
| VIMN | ≤ 0.25 |
| PHNW | ≤ 0.25 |
| TPNR | ≤ 0.25 |
| QAIQ | ≤ 0.25 |
| CYFH | ≤ 0.25 |
| IAGE | ≤ 0.25 |
| IPFN | ≤ 0.25 |
| MSER | ≤ 0.25 |
| IWNP | ≤ 0.25 |
| KRYQ | ≤ 0.25 |
| DEYH | ≤ 0.25 |
| NFMG | ≤ 0.25 |
| LNQF | 0.521 |
| FEPY | ≤ 0.25 |
| MQPF | ≤ 0.25 |
| AIRA | ≤ 0.25 |

| Variant | enrichment ratio |
| --- | --- |
| MSFN | 1.37 |
| FTKN | ≤ 0.25 |
| QEQS | ≤ 0.25 |
| SLYV | ≤ 0.25 |
| RCFC | ≤ 0.25 |
| RIKH | ≤ 0.25 |
| VLGQ | ≤ 0.25 |
| HGCA | ≤ 0.25 |
| LEFF | ≤ 0.25 |
| SVVC | 2.15 |
| WQVS | ≤ 0.25 |
| GAYK | ≤ 0.25 |
| PMQI | ≤ 0.25 |
| WWGR | ≤ 0.25 |
| APTQ | ≤ 0.25 |
| HHVF | ≤ 0.25 |
| GIWP | ≤ 0.25 |
| VHGK | ≤ 0.25 |
| EERF | ≤ 0.25 |
| YKHQ | ≤ 0.25 |
| GMIY | ≤ 0.25 |
| RVLH | ≤ 0.25 |
| GRLM | 0.324 |
| IHIN | ≤ 0.25 |

| Variant | enrichment ratio |
| --- | --- |
| HQRG | ≤ 0.25 |
| GMIS | ≤ 0.25 |
| TMCR | 20.7 |
| PMLN | ≤ 0.25 |
| ADAF | ≤ 0.25 |
| RNEF | ≤ 0.25 |
| WFTP | ≤ 0.25 |
| FNAY | ≤ 0.25 |
| NNGY | ≤ 0.25 |
| YYLW | ≤ 0.25 |
| YPTQ | ≤ 0.25 |
| IITW | ≤ 0.25 |
| SMPP | ≤ 0.25 |
| YPHN | ≤ 0.25 |
| PLPR | ≤ 0.25 |
| PKKG | ≤ 0.25 |
| FYFT | ≤ 0.25 |
| AESM | 11.2 |
